Data reported in the supplement of paper PMC3334620.
The full ranking holds about 33,000 sequences; the median of “E-score (-0.5 to 0.5)” is about -0.053, and the highest 2% start at about 0.37. The list shows a part of the results.

What follows are sequences tested against Hap1 (UniProt P0CE41) (assay: PBM E-score (8-mer binding enrichment) (E-score (-0.5 to 0.5)); higher = stronger / more preferred TF binding; most listed sequences are background and not binding sites). Details: protein concentration: 200 nM; construct: GST-DNA-binding domain.
Procedure, shortened: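 Universal all-10-mer Agilent arrays, fresh or stripped once, were converted to double-stranded form by primer extension. GST-tagged yeast transcription factors from PURExpress in vitro transcription/translation, full-length or DNA-binding domain only, were applied at about 100-200 nM and detected with fluorescent anti-GST. After masliner normalisation, the Universal PBM Analysis Suite scored each ungapped eight-base word together with its reverse complement by E-score.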

Chain of UniProt P0CE41 (P0CE41 whole entry, the tested form may be a part): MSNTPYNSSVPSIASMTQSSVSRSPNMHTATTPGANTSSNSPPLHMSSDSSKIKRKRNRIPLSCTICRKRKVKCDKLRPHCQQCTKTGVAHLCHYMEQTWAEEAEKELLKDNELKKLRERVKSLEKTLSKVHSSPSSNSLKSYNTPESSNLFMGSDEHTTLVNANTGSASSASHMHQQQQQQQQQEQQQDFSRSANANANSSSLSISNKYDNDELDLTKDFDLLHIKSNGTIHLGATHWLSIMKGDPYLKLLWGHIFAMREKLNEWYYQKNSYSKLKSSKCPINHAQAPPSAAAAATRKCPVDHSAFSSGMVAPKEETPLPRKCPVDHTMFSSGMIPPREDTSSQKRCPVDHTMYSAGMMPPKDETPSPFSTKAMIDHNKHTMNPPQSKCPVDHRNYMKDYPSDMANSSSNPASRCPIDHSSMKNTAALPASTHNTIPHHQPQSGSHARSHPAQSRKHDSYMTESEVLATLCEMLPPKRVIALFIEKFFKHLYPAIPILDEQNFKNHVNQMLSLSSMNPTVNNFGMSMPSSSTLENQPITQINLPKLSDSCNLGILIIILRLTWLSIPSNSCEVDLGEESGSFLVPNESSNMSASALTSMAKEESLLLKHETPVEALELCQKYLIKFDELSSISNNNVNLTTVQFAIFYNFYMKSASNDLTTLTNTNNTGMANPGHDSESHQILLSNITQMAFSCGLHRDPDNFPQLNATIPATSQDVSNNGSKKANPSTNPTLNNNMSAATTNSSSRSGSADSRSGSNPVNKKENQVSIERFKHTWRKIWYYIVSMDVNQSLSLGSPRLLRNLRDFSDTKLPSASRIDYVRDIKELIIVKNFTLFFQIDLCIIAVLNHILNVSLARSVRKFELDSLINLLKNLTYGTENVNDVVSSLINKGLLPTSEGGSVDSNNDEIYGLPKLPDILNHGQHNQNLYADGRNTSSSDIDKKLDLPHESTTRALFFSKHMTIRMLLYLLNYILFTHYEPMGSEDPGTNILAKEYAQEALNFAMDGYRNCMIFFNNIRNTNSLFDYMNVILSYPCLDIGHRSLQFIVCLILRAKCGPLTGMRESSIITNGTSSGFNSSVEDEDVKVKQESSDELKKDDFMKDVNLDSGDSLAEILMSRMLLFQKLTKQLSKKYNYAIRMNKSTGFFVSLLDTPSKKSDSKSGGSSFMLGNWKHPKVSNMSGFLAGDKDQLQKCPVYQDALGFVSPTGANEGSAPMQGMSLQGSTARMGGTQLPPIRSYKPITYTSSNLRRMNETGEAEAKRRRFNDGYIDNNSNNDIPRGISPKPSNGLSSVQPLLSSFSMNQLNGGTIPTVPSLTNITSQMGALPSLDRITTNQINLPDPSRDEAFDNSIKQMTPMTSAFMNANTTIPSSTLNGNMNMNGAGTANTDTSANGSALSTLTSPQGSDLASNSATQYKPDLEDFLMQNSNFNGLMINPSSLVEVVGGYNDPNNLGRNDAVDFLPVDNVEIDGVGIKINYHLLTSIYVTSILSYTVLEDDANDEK

Row | Sequence | PBM E-score
1 | CCGGCGAG | 0.309
2 | AGGTTTAA | -0.103
3 | TAGAGCGA | -0.198
4 | TACGAAAA | -0.198
5 | ACTAAAAC | 0.0373
6 | AGCTGTCC | -0.118
7 | TACGCCTA | -0.258
8 | AGAGTTTG | -0.113
9 | GGGTGTCA | 0.0288
10 | CCCCGACC | 0.238
11 | CGGCAACA | 0.196
12 | AATAATGC | 0.142
13 | CGTCACCA | -0.282
14 | AAACCTGC | -0.148
15 | GTTCGCCA | 0.0159
16 | GCCCGCAA | 0.199
17 | AAAGGACT | -0.0254
18 | AAACTAAG | -0.174
19 | ACAGATAT | -0.0542
20 | ACGTTTCG | -0.0258
21 | CATCAAAA | -0.0602
22 | GAATAGGA | -0.00614
23 | ATCATCAT | -0.177
24 | CGGAGCAA | 0.394
25 | CGGATCTA | 0.404

Row | Sequence | PBM E-score
26 | CTCTTACA | -0.349
27 | ACACGCCA | -0.0689
28 | ACTCCCGC | 0.151
29 | ATGTAAAC | 0.123
30 | CTGGGAAG | -0.191
31 | AAAGGGCC | 0.0246
32 | CTGAGAAC | -0.202
33 | TCATTTCA | -0.079
34 | CAAATGTC | -0.0154
35 | ATTGGCGC | -0.035
36 | GGGGTATA | 0.103
37 | CGGCATTC | 0.284
38 | GGACAAAA | 0.342
39 | ATGCACCC | 0.0505
40 | ACATGGAC | -0.143
41 | AGCCCACA | -0.284
42 | CACTCGAC | -0.079
43 | GCTTGCAA | -0.0866
44 | TAATCTCA | -0.0629
45 | ACGGGCTA | 0.0774
46 | CTTCTGAA | -0.0945
47 | ACATGGCG | -0.13
48 | ATAGGTAG | -0.053
49 | AAGTTAAA | -0.168
50 | CCGCGACG | 0.155

Row | Sequence | PBM E-score
51 | AAAAAGAG | -0.187
52 | ACTTAAGC | 0.0112
53 | CGGGACGA | 0.0655
54 | CCAGGGCC | -0.191
55 | GGAATGGA | -0.0214
56 | AGACCGAG | 0.373
57 | GCGAATAA | 0.128
58 | AAGTCCAG | -0.056
59 | ACGATAAG | 0.245
60 | AATTCTAC | -0.113
61 | CATAAGAC | 0.0262
62 | ATGGGTAG | -0.264
63 | TGACCGAA | 0.287
64 | ACTGTAAA | -0.0288
65 | AAACCAAA | -0.0263
66 | GCCGACAC | 0.184
67 | GAGGATTA | -0.0987
68 | CTTCGATA | -0.0393
69 | GAACTTGC | -0.0238
70 | ACCCGGAG | 0.423
71 | GCAGCACA | -0.0485
72 | GGCAGTAA | 0.107
73 | AGTGTGCC | -0.0069
74 | CGGGGGTA | 0.425
75 | CCCGAAAA | 0.426

Row | Sequence | PBM E-score
76 | AATGCTGT | -0.168
77 | AGGCTAAT | 0.0538
78 | CACGCTTA | -0.11
79 | CATGTACC | -0.161
80 | GCCTGCCA | -0.181
81 | CCAAAACC | 0.0626
82 | GTCAACAA | -0.228
83 | AGCCAGCC | -0.199
84 | ACTGTCTG | -0.191
85 | AAATAGTA | 0.00936
86 | CCGTACTC | -0.0134
87 | GGTCACCA | -0.24
88 | CTATCGAG | -0.0625
89 | CGTGGGGC | 0.13
90 | AAGCTAAT | -0.074
91 | AGTTATCG | 0.382
92 | CTGTGTAC | -0.0675
93 | ACCAACAT | -0.117
94 | GCCGCCTA | -0.0827
95 | CAGATCCA | -0.0335
96 | CAGGTGAA | -0.193
97 | CCAGCGAA | -0.0597
98 | TGATAAAA | -0.0276
99 | GATTTCAA | 0.167
100 | ATAGGACG | -0.101

Row | Sequence | PBM E-score
101 | AGCCACCT | -0.268
102 | GGCTACCA | -0.204
103 | ATGATTAG | -0.0377
104 | CGTTACGA | 0.133
105 | GGTTCTGA | -0.0989
106 | GCCGTGAC | 0.133
107 | GCATGCGA | 0.0384
108 | CCCCTCCC | -0.00587
109 | TAAAAGTA | 0.0319
110 | AATCAAGA | -0.255
111 | ATGGCCCA | 0.116
112 | ACTGACCG | 0.226
113 | CATCTTGA | -0.139
114 | CAGGGCGA | -0.0338
115 | GGGACGAA | 0.0323
116 | ATCTTGAG | -0.192
117 | GGAGATAC | 0.438
118 | CTTCCCGA | 0.143
119 | CGTGACAA | -0.0742
120 | AACGCATT | 0.0181
121 | AGTCATCA | -0.137
122 | ATCGACTC | -0.15
123 | CGTCGCAG | -0.115
124 | AGCCCAAC | -0.259
125 | GGATGGTA | -0.0158

Row | Sequence | PBM E-score
126 | GGACATTA | 0.368
127 | ACGTAACC | 0.0628
128 | CAATGATG | -0.14
129 | CCCGGTGA | 0.23
130 | CCAATCTA | -0.0103
131 | AATCCCGC | 0.257
132 | AGTAAGTC | -0.0852
133 | GCCTGACA | -0.207
134 | CTATCTAC | -0.0399
135 | TACCAACA | -0.294
136 | TCTGTGCA | -0.194
137 | TGGAGAAA | -0.0481
138 | CGGCATCC | 0.218
139 | AAGCAGGT | -0.0562
140 | ACCGGAGC | 0.409
141 | CGAATACG | 0.125
142 | CAACCTCG | 0.176
143 | CTGTAAAC | -0.373
144 | TAGAGGGA | -0.239
145 | CGTATACC | -0.0877
146 | ACCTCCCT | -0.183
147 | CTTCCCTC | -0.191
148 | ACGCCACA | -0.0123
149 | TGGCCAAA | -0.2
150 | ACCACCTC | 0.118

Row | Sequence | PBM E-score
151 | CCCTACAA | -0.126
152 | GGAGGGTA | 0.107
153 | CGCCAGTA | -0.0225
154 | GATCGTAC | -0.00738
155 | AAGGTCCG | 0.349
156 | CAGTTTCC | 0.0814
157 | GATTCGCC | 0.0633
158 | ACATCTCT | -0.0976
159 | AACATTTG | -0.17
160 | CTAGCTTC | -0.0202
161 | AGTCGTCA | -0.255
162 | AAAACGCG | 0.149
163 | GGCAAAAA | 0.123
164 | CCAAAGAG | -0.139
165 | TCGTATAA | 0.0439
166 | AAATAACC | 0.0225
167 | AATTTTGG | -0.0933
168 | GAGGTGAA | -0.0161
169 | CAACCGTG | -0.151
170 | CCCACATC | -0.0942
171 | ACGAGTAC | -0.169
172 | AGAGGAGG | -0.278
